Test results as given in the RNAGym collection of RNA variant scans (doi:10.1073/pnas.2313332121).
Variants at the background level are over-represented here.

B1: TPR 5TU (parent)
chain: GGAUCUUCUCGAUCUAACAAAAAAGACAAAUCUGCCACAAAGCUUGAGAGCAUCUUCGGAUGCAGAGGCGGCAGCCUUCGGUGGCGCGAUAGCGCCAACGUUCUCAACUAUGACACGCAAAACGCGUGCUCCGUUGAAUGGAGUUUAUCAUG

Variants of: B1
Assay: polymerase ribozyme fitness, log enrichment relative to wild type (log ratio); higher = more active; in vitro selection for triplet polymerase activity
Procedure, shortened: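 Each subunit of a heterodimeric triplet polymerase ribozyme was represented by a PCR-built, transcribed mutant library that underwent triplicate single-round in vitro selection with frozen incubation at −7 °C. Extended constructs were recovered by gel excision, streptavidin-bead capture and RT-PCR, and Illumina sequencing of input and output libraries kept genotypes with ≥10 input reads and ≥1 read per output. Fitness is the logarithm of genotype enrichment relative to wild-type enrichment, from inverse-variance-weighted replicate averages, with a logarithm base of 2.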

Variant	polymerase ribozyme fitness (log ratio)
C14G A40C A73U G83U C114U A142U	≤ -4.2
C14G A23C C32G U55C U90G C99U A121C A137G	≤ -4.2
C14G C36U U55G G68U C93G U134A	≤ -4.2
C14A A17C A41C C96U A115U G141A	≤ -4.2
C14G U15A A29C A47C C54U U82G C96U C114U U145G	≤ -4.2
C14A A29C U77C G86U G117U U139A G140U U148A	≤ -4.2
C14G G88U G140A	≤ -4.2
C14G G42C G70A G88C U127C	≤ -4.2
C14A A40G C43G G86U U135C G143C U148G	≤ -4.2
C14A C32G U45A U55A G59C G92A A98U A110U C114U	≤ -4.2
C14G C93U	-3.66
C14G C36U U45A A49G U53G G58C C95U	≤ -4.2
C14G A28G A52C C93A C108A	≤ -4.2
C14G C27G C43G G68U G80C U101C	≤ -4.2
C14G A23U C35A C69U C93U	≤ -4.2
U13G G46A G83A U101A U134A U135C	≤ -4.2
C14G U31A G62A A73C U90C C93U	≤ -4.2
C14A G62U G94A	-2.9
U13G G59A C93A A113G	≤ -4.2
U13G G84A C114A G136C	≤ -4.2
C14G A66U C69A	≤ -4.2
C14G G58C G81C C93G A107U	≤ -4.2
C14G A24U G34A G42C G59A C87U A107G G141A A147G	≤ -4.2
C14G G48C G59C C93A G141C	≤ -4.2

Variant	polymerase ribozyme fitness (log ratio)
C14G C95G C96G	-4.07
C14A U55G G83A G100U G126C U146G C149G	≤ -4.2
C14G A29G A30G G70C C93G G124U	≤ -4.2
C14G C27G A52C G83U G86C A91C G92A C96A G112C	≤ -4.2
C14G G25U C36A U55G G65C C75U G141C	≤ -4.2
C14G A24C C35U C57A G84U A97U	≤ -4.2
C14G A20U U55A C85A C105U U134A	≤ -4.2
C14G A30U	≤ -4.2
C14G A21U A28G G81U C96G G140U U144A	≤ -4.2
C14G C87A C93A	≤ -4.2
C14G C43A U44A G92U A98G A121C	≤ -4.2
C14G A91U G136C	≤ -4.2
C14A U44G	-4.1
C14A U82A G92A	≤ -4.2
C14G G42U G83C C108A G133U U146G	≤ -4.2
C14G A20C G46A G58A C63U C96U C108G G140C G143U	≤ -4.2
C14A A16U A19G G25C U53A C54U U56A G65U A106G C116U G143C	≤ -4.2
C14G C87A U146G	≤ -4.2
C14A A19C A39C C54U C75A C76U C87U U90G	≤ -4.2
C14G A19G C85U G86C	≤ -4.2
C14G A49C U78G G84A C96U C125U	≤ -4.2
C14A A24C A26U C96U	≤ -4.2
C14G A24G C76A C87U C99A C125G	≤ -4.2
C14G G34U C51U G70A C96G	≤ -4.2

Variant	polymerase ribozyme fitness (log ratio)
C14G C27G A37U A40U G133C	≤ -4.2
C14G C75G G94A	≤ -4.2
C14G C38U C75G G83U A106U G141A U144G	≤ -4.2
C14G C35A G42C A66G C96G G117U	≤ -4.2
C14G U31A G70A C75G G94C C103A C123U U134G	≤ -4.2
U13G C96A	-0.681
C14G A52C G58A C96U C125G	-3.92
C14G G58C C75G C87U	≤ -4.2
C14G C54A C76A G84A	≤ -4.2
C14G C69A G70A A138C	≤ -4.2
C14G G42U C87G	≤ -4.2
C14G A30C U55G C85A G143C U144C	≤ -4.2
C14G G58A	-2.24
C14A C35G G84A C114U C123U G128C	≤ -4.2
C14G C54G G68C C85U C105A C114A A137U	≤ -4.2
C14G G59A A73U C87G	≤ -4.2
C14G A91U	≤ -4.2
C14G A91G	≤ -4.2
C14G A20U A22C G25U A64C C75A U90C G141A G143C	≤ -4.2
C14G G81A C93A A106C C116A	≤ -4.2
C14G A21U A40C U44A G67A C87U A107U	≤ -4.2
U13G U56A C57U C87A G88C A89U A121U C125A U148A	≤ -4.2
U13G C76U C85G C125U U139G	≤ -4.2
C14G G46C U61A	≤ -4.2

Variant	polymerase ribozyme fitness (log ratio)
C14A C57G G71A C76A C99U C105A U127C A142G	≤ -4.2
U13G U77C C87A C93U U127G	≤ -4.2
C14G A19G C54U C76G U82G A119G G128C U134C	≤ -4.2
C14A C38U U56A C93G A110C G136U G143A	≤ -4.2
C14A C54A	-3.55
C14G A22G A26C C63U C99G G141A	≤ -4.2
C14G C57U G86U A147G	≤ -4.2
U13G G84U	-3.13
C14A A16G U45A U55G U61A G65U G94C C96U U101G	≤ -4.2
C14A U53A G94C	-3.67
C14G A60U G86U	≤ -4.2
C14G A39G U53A C54U C93A	≤ -4.2
C14A U55G G74A C85U A107U C116G A121U U135A	≤ -4.2
C14A A19U A37C U53G A73G U77G C96U	≤ -4.2
C14A C57U A66C G84A G88C A97C U135G G136A	≤ -4.2
C14A A47C C123U U134A A138U U144G	≤ -4.2
C14A C27G A91C A115G A121C	≤ -4.2
C14G C75A G84U	-4.14
C14G C43G C51U C93U C149A	≤ -4.2
C14G C18G C51G C75G A107C G140U	≤ -4.2
C14G A19U A30C G46A G50C C72U G74A A91C U139A	≤ -4.2
C14G A64C A73U U144G	≤ -4.2
C14A A24U G42C C76U C79G C87U A97G U148A	≤ -4.2
C14G A22G A26C C54U G86A A91U G133C	≤ -4.2

Variant	polymerase ribozyme fitness (log ratio)
C14G A21C C54A G67A G94U C123U	≤ -4.2
C14G A23G A52G U56A A91U A150G	≤ -4.2
C14A A20U G25A A40G C54U	≤ -4.2
C14A C38U G84U	-3
C14G C18U C51A C79U G84C U109A C123G U144G	≤ -4.2
C14A C43U C79G	≤ -4.2
C14G C93U G140A U144C	≤ -4.2
C14G A22C G42U U45A C93A A138U	≤ -4.2
C14G U15G A19C A22C A41G G58C C93U	-3.91
C14G G84C A91C	≤ -4.2
C14G C87U G141A	-2.56
C14G G42C C79A G86U A89C G152A	≤ -4.2
C14A A39U G59C G84A G92C A138U U139A	≤ -4.2
C14A A29G A37C G68C C85A A106U U134C	≤ -4.2
C14G A20U A28C G42A C103U A122U U145C U151A	≤ -4.2
U13G G58C G88A G100A U104A C116G	≤ -4.2
C14G A16U A39G G124A	≤ -4.2
C14G G83A G140C	≤ -4.2
C14G G59A C87U	-3.82
U13G G92C	-2.36
C14A G48A G94A G100C C114A	≤ -4.2
C14G G84A A91G U127G	≤ -4.2
C14A U61G U111A A121C	≤ -4.2
C14A A37C C87U C103G U109G C129A A137U	≤ -4.2

Variant	polymerase ribozyme fitness (log ratio)
C14A C18U A22U A26U U82C C95U U145G U148C C149U	≤ -4.2
C14A A23G A26U C43U C54U C57A C96G G143A	≤ -4.2
C14A U55A C75U A120U	-2.39
C14A G68A G84A G136C	≤ -4.2
C14G A40G A73G C85U U139A	≤ -4.2
C14G A19C U55G C57A U61C G86A A91G C93G C96U A106U A147U	≤ -4.2
C14A A20U C85A U109G	≤ -4.2
C14A G68U C76A C99U G100A	≤ -4.2
C14G A29G G86A	≤ -4.2
C14G A47C C85G C95U U139C U148G	≤ -4.2
C14G G42A G58C U61G A64G C93G C99G A106G U145A	≤ -4.2
C14G C72U	-3.04
C14G A17U C54G C93A G100A A121C C123A U144G	≤ -4.2
C14G G25C U44A G68U G81A U139A G143A U146C	≤ -4.2
C14G G94A	-2.61
C14G A39U U44G G58U A120U C123U G143C	≤ -4.2
C14G A19C G34U G86A G117A U151A	≤ -4.2
C14G A24U A26G G50C C85U C103A A119G	≤ -4.2
C14A U56A C96U C99U U102G G136U U151A	≤ -4.2
C14A A37G C93U	-4.13
C14A C38U C69G C85A A113G	≤ -4.2
C14A G86C	-3.85
C14A G62A C85A G141A	-3.57
U13G C96G A120G	-1.51

Variant	polymerase ribozyme fitness (log ratio)
C14G G58U A91U	≤ -4.2
C14A A22U A24G G42U C76A A120G U127C U145C	≤ -4.2
C14G G65U G67U G133A U135A	≤ -4.2
C14A A19G A26U C79A G83U A119C	≤ -4.2
C14G A16G A21C A37C A41G C63G G152A	≤ -4.2
C14A A20U A60G A66U C93G	≤ -4.2
C14A A17G U31A G59A C75G C95U U101G A113U A121U	≤ -4.2
C14G G25U A49U G88C C125A	≤ -4.2
C14A U44A G81A C85A U102G	≤ -4.2
U13G U55A G74C A115G A120U	≤ -4.2
U13G C85U C96U G100A A115C	≤ -4.2
C14A G48A A91U G100A U101C U134A	≤ -4.2
C14A A52C C54A C85U	≤ -4.2
U13G G50C A60C C79U G94A A97U A98U	≤ -4.2
C14A A41U A49C	≤ -4.2
U13G U53A C87U A89C	≤ -4.2
C14G G84A	-2.16
C14G C32A G59C G70A	≤ -4.2
U13G G48A C93A C125G	≤ -4.2
C14A A52U A89U G94C A97C	≤ -4.2
C14G G48C A49G U53A G92U C93U A107U	≤ -4.2
C14A G84A	-1.24
C14G A21C C35A G112U	≤ -4.2
